Experimental data as given in PubChem BioAssay AID1030 (National Center for Advancing Translational Sciences (NCATS), 2008).
Where “and” joins values, the source holds several entries; their conditions need not be identical. Equal entries are not always repeated. About 16,000 (7.3%) of roughly 220,000 compounds were called active. The shares of active, inactive and inconclusive entries below differ from those in the screen. Calls follow the shape of the dose curve; as a rule, active = well fitted inhibition curve with a large enough effect (not every such curve was filed as active); inconclusive = small, poorly fitted or top-dose-only effect, or another doubt; inactive = no such curve, though single readings can be large or run the other way. Where the call is inconclusive, the potency comes from a doubtful curve fit.

These compounds were tested against Aldehyde dehydrogenase 1A1 (Homo sapiens) (UniProt P00352) (assay: qHTS Assay for Inhibitors of Aldehyde Dehydrogenase 1 (ALDH1A1)). Conditions: Purified ALDH1A1, NADH fluorescence, propionaldehyde substrate; series mostly up to 75.3 µM.
Potency is read from the fitted curve at half-maximal effect; tags tell the direction and shape of the fitted curve.

Chain of UniProt P00352 (P00352 whole entry, looked up): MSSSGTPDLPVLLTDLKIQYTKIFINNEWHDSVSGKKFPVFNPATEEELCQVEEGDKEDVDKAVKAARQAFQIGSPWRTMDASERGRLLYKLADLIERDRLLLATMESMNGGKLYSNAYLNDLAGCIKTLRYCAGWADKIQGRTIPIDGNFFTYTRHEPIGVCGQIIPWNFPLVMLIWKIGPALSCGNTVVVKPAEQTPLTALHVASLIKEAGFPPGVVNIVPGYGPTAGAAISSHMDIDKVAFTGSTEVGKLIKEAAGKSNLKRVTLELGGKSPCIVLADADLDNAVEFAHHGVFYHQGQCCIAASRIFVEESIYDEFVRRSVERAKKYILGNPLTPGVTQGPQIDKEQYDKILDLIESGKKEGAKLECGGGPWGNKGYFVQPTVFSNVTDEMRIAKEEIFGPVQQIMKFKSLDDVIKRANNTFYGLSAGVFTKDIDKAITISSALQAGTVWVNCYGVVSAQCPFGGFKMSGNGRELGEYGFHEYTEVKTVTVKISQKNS

Potency, inactive:
Cn1nnnc1P(=O)(c1ccccc1)c1ccccc1
CC(C)(C)Nc1nc(Cl)nc(N(C#N)CN2C(=O)c3ccccc3S2(=O)=O)n1
NC(=O)COc1ccc(C23CC4CC(CC(C4)C2)C3)cc1
COc1ccc2c(c1)c(CC(=O)N1CCOCC1)c(C)n2C(=O)c1ccc(Cl)cc1
Cc1cc(NC(=O)Cn2c(C)nc3ccccc3c2=O)ccc1Br
Cc1cc(C)cc(N(CC(=O)NCC2CCCO2)C(=O)CCC(=O)Nc2cc(C)on2)c1 (stereo unspecified)
CC(=O)CC1(C)OC(N)=C(C#N)C1(C#N)C#N (stereo unspecified)
CC1CCCN(CCOCCOc2ccc(Cl)cc2Br)C1 (stereo unspecified)
CCOCCCNC(=O)C1CCN(S(=O)(=O)N2CC(C)CC(C)C2)CC1 (stereo unspecified)
O=C(Nc1ccccc1)Nc1ccc2ocnc2c1
O=C(O)CCCC/C=C\C[C@@H](O)/C=C/C=C/C=C\[C@@H](O)CCCC(=O)O
CCOC(=O)CCc1c(C)nc(SCCN2CCCC2)c(C#N)c1C
CC(=O)c1ccccc1NC(=O)COC(=O)c1ccccc1NC(=O)c1ccccc1
COc1ccc(C(=O)Nc2ccccc2C(=O)NC(C(=O)NCc2ccco2)C(C)C)cc1 (stereo unspecified)
CC1CCCN(Cc2csc(N)n2)C1 (stereo unspecified)
O=C(Cc1c(Cl)cccc1Cl)Nc1cccnc1
CC(C)c1ccc(S(=O)(=O)N2CCN(C(=S)NCc3ccco3)CC2)cc1

Potency, inconclusive:
c1ccc(C[n+]2cccc3c4ccccc4ccc32)cc1 25.1 µM [inhibitor, partial curve]
Cc1cc(=O)oc2cc(OCc3ccc(C(=O)N4CCN(c5ccc([N+](=O)[O-])cc5)CC4)cc3)ccc12 15.8 µM [inhibitor, partial curve]
O=C(c1cccc(F)c1)N1CCC[C@@]2(CCN(c3ncccn3)C2)C1 39.8 µM [inhibitor, single point]
CCOc1ccc(NC(=O)CN(c2ccc([N+](=O)[O-])cc2)S(=O)(=O)c2ccccc2)cc1 3.16 µM [inhibitor, full curve]
Cc1cc2ccccn2c1C(=O)c1cccc(S(=O)(=O)N2CCOCC2)c1 39.8 µM [inhibitor, single point]
COCCNC(=O)C(c1ccc(C)o1)N(Cc1cccs1)C(=O)c1snc(C(N)=O)c1N (stereo unspecified) 39.8 µM [inhibitor, single point]
CCOC(=O)c1c(/N=C/C2=C(O)CC(C)(C)CC2=O)sc(C(C)=O)c1C 25.1 µM [inhibitor, single point]
O=C(Nc1cccc([N+](=O)[O-])c1)C(=O)N1CCCCC1 31.6 µM [inhibitor, single point]
COc1cc(/C=C2/NC(=O)NC2=O)cc(Br)c1OCc1ccc(C(=O)O)cc1 28.2 µM [inhibitor, partial curve, poor fit]
COc1ccc(CNC(=O)CSCc2cnn(-c3ccccc3)c2-n2cccc2)cc1 20 µM [inhibitor, partial curve]
CC(=O)Nc1sc(C)c(C)c1C(=O)OCC(=O)Nc1cc(S(C)(=O)=O)ccc1Cl 28.2 µM [inhibitor, single point]
Cc1ccc(C(=O)N2CCN(S(=O)(=O)c3ccccc3[N+](=O)[O-])C2)cc1 39.8 µM [inhibitor, single point]
COCCn1c(=N)c(C(=O)NCc2ccco2)cc2c(=O)n3ccccc3nc21 35.5 µM [inhibitor, partial curve]
CCC(=O)N1CCN(c2ccccc2NC(=O)c2ccc(-c3cccc([N+](=O)[O-])c3)o2)CC1 31.6 µM [inhibitor, single point]
Cc1ccc(OCC(=O)N/N=C\c2ccc(C)o2)c(C)c1 39.8 µM [inhibitor, single point]
CCN(CC(=O)NC(C)(C)C)C(=O)COc1c(Cl)cc(Cl)c2ccc(C)nc12 28.2 µM [inhibitor, partial curve]
Cc1nc(NNC(=O)c2ccc([N+](=O)[O-])cc2)cc(-c2ccccc2)n1 12.6 µM [inhibitor, partial curve]
CC1CCC(NC(=O)Nc2cccs2)CC1 (stereo unspecified) 35.5 µM [inhibitor, single point]
CC1CCN(C(=O)Nc2ccc3nsnc3c2)CC1 35.5 µM [inhibitor, single point]
COCC(C)OC(=O)c1c(N)n(CC(C)C)c2nc3ccccc3nc12 (stereo unspecified) 31.6 µM [inhibitor, partial curve]
Cc1nnc(Sc2c(-c3ccccc3)c3ccc(Cl)cc3[nH]c2=O)s1 22.4 µM [inhibitor, partial curve]
COc1ccc([C@H]2[C@H](C(=O)C(C)(C)C)N3N=Cc4ccccc4C3C23C(=O)OC(C)(C)OC3=O)cc1 (stereo partly specified) 35.5 µM [inhibitor, single point]
S=C(NCc1ccccn1)Nc1ccc(Cl)cc1Cl 28.2 µM [inhibitor, single point]
c1ccc2c(-c3nnc4n3CCCCC4)cc(-c3ccncc3)nc2c1 39.8 µM [inhibitor, single point]
O=C(/C=C/c1ccc(Br)o1)OCc1ccccc1 39.8 µM [inhibitor, single point]
CCOC(=O)c1sc2nc3c(cc2c1N)COC(C(C)C)C3 (stereo unspecified) 8.91 µM [inhibitor, partial curve]
Clc1ccc(OCCN2CCOCC2)cc1Cl 28.2 µM [inhibitor, single point]
O=c1c2cn[nH]c2nc(SCc2ccc3c(c2)OCCO3)n1-c1ccccc1 35.5 µM [inhibitor, partial curve]
Cc1ccc(-c2[nH]nc3c2C(c2ccc(OC(=O)N4CCOCC4)cc2)C(C#N)=C(N)O3)cc1 (stereo unspecified) 14.1 µM [inhibitor, partial curve]
Cc1ccc(-c2ccc(CCC(=O)O)n2C(C)C)cc1 35.5 µM [inhibitor, single point]
Cn1cc(-c2nnnn2-c2ccc(Cl)cc2)c(=O)c2ccccc21 25.1 µM [inhibitor, single point]
Cc1ccc(-c2cc(C(F)F)nc(N3CCC(C)CC3)n2)cc1 44.7 µM [inhibitor, single point]
Cc1ccc(OCc2nc(C#N)c(NCCCn3ccnc3)o2)cc1 28.2 µM [inhibitor, partial curve]
COc1ccc(/C=C/c2nc3ccccc3n2C)cc1 39.8 µM [inhibitor, single point]
O=C(NCc1cccnc1)c1cnn2ccccc12 31.6 µM [inhibitor, partial curve]
O=c1c(-c2ccccc2)nc2cnc(Oc3ccccc3)nc2n1C[C@H]1CCCO1 25.1 µM [inhibitor, single point]
COc1ccc(C2C(C(=O)Nc3ccccc3)=C(C)N=C3SCC(=O)N32)cc1 (stereo unspecified) 31.6 µM [inhibitor, single point]
N#Cc1ccccc1Cn1c(=O)n(C2CCCC2)c(=O)c2ccccc21 22.4 µM [inhibitor, partial curve]
O=[N+]([O-])c1ccc(CN2CCN(Cc3c[nH]c4ccccc34)CC2)cc1 39.8 µM [inhibitor, single point]
O=C(c1ccccc1)N1CCN(c2ncnc3c(-c4ccccc4)nsc23)CC1 31.6 µM [inhibitor, single point]
O=C(Nc1cccc(F)c1)c1coc(=O)c(Br)c1 35.5 µM [inhibitor, partial curve]
COc1ccccc1-c1ccc2ncnc(NC3CCNCC3)c2c1 39.8 µM [inhibitor, single point]
Cc1ccc(C(=O)Cn2cnc3ccccc3c2=O)cc1C 2.38 µM [inhibitor, single point]
CC(C)(C)c1cc(C(=O)NNc2ccc(OC(F)(F)F)cc2)n(Cc2ccccc2)n1 39.8 µM [inhibitor, single point]
O=[N+]([O-])c1cccc(-c2nnc(-c3ccc4c(c3)OCO4)o2)c1 17.8 µM [inhibitor, single point]

Potency, active:
O=C(NC(=S)Nc1cccc(NC(=O)c2ccccc2Cl)c1)c1cccs1 4.47 µM
COc1ccc(-n2c(=O)/c(=C\c3cccs3)s/c2=C(/C#N)C(=O)N2CCN(C)CC2)cc1 7.08 µM
CCC(CC)C(=O)Nc1nnc(SCC(=O)N2CCN(c3ccccc3OC)CC2)s1 12.6 µM
Cc1cccc(OCC(=O)N/N=C\c2cc3c(cc2[N+](=O)[O-])OCO3)c1C 7.94 µM
O=C(O)c1ccc(Cl)c(S(=O)(=O)Nc2ccc3cn[nH]c3c2)c1 22.4 µM
COc1ccc2c(C=O)c[nH]c2c1 6.31 µM
CSc1nc(C)c2c(c1C#N)CCCC2 25.1 µM
O=c1c2ccccc2nc(-c2ccccc2)n1CCN1CCOCC1 12.6 µM
Cc1coc2c1C(=O)C(=O)c1c-2ccc2c1CCCC2(C)C 2.82 µM and 20 µM
